Data taken from PubChem BioAssay (NCATS).
The shares of active, inactive and inconclusive entries below differ from those in the screen. For some assays here: No potency is given beside an inconclusive call; the fits are too rough. Calls of active or inactive are those of the source. Calls come from the whole dose curve; as a rule, active = well fitted curve in the direction sought with a large enough effect; inconclusive = small, poorly fitted or top-dose-only effect, or another doubt; inactive = no such curve, though single readings can be large; an effect the other way counts as inactive or inconclusive.

Key:
[1] = qHTS of pediatric cancer cell lines to identify multiple opportunities for drug repurposing: Primary screen for Saos-2 cells (AID 1347097); note: potency is the fitted concentration of half-maximal effect; nearly all actives have a fitted effect of over 40% in size
Outline: (§1)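 500-1,000 cells/well; 5 h pre-incubation 37 °C/5% CO2; compound pinned; 48 h; CellTiter-Glo, 15 min RT; luminescence. MIPE 11-pt from 0.78 nM, NPC 8-pt from 0.59 nM final. Bortezomib 2.3 µM final as positive control.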

[2] = qHTS of pediatric cancer cell lines to identify multiple opportunities for drug repurposing: Primary screen for TC32 cells (AID 1347089); note: potency is the fitted concentration of half-maximal effect; nearly all actives have a fitted effect of over 60% in size
Outline: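 TC32 cells, 500-1,000/well in growth medium, compound-treated 48 h at 37 °C; viability from CellTiter-Glo luminescence. Primary screen: MIPE 11-point (0.78 nM–46 µM final), NPC 8-point (0.59 nM–46 µM final); confirmatory at 11-point dilutions.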

[3] = qHTS of pediatric cancer cell lines to identify multiple opportunities for drug repurposing: Primary screen for A673 cells (AID 1347092); conditions: A673 Ewing sarcoma viability, CellTiter-Glo ATP luminescence, 48 h; activity change, negative = cytotoxic: at 46 µM (top of the series); note: potency is the fitted concentration of half-maximal effect; nearly all actives have a fitted effect of over 45% in size
Outline: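 A673 cells (500-1,000 cells/well) were treated 48 hours at 37 degrees C with compounds at 11-point (0.78 nM to 46 µM) or 8-point (0.59 nM to 46 µM) dilutions. Viability read by CellTiter-Glo luminescence; concentration-response curves fitted.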

[4] = qHTS of pediatric cancer cell lines to identify multiple opportunities for drug repurposing: Primary screen for SK-N-MC cells (AID 1347093); conditions: SK-N-MC viability, CellTiter-Glo luminescence, 48 h; activity change, negative = cytotoxic: at 46 µM (top of the series); note: potency is the fitted concentration of half-maximal effect
Outline: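 Metabolically active cells were quantified by ATP-dependent luminescence (CellTiter-Glo, 15 min at room temperature) following 48 h treatment. Cells had been plated at 500-1,000 per well and settled for 5 h beforehand.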

[5] = qHTS of pediatric cancer cell lines to identify multiple opportunities for drug repurposing: Primary screen for Rh18 cells (AID 1347102); note: potency is the fitted concentration of half-maximal effect; nearly all actives have a fitted effect of over 65% in size
Outline: (§2)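 Cells (500-1,000/well) in growth media were settled 5 h at 37 degrees C, then given compounds for 48 h. Viability was read as CellTiter-Glo luminescence. Primary runs used MIPE at 11 points (0.78 nM-46 µM) and NPC at 8 points (0.59 nM-46 µM); follow-ups used 11 points.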

[6] = system: Zika virus NS2B-NS3 protease (unlinked complex); assay: Primary screen GU Rhodamine qHTS for Zika virus inhibitors: Unlinked NS2B-NS3 protease assay (AID 1347159); note: potency is the fitted concentration of half-maximal effect; nearly all actives have a fitted effect of over 60% in size
Outline: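 A qHTS format was used, with compound concentrations ranging up to 114 microM. Each compound was preincubated with 25 nM NS2B-NS3 protease, and the substrate was then added at 1.5 microM. Curves were fitted with a 4-parameter Hill model.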

[7] = system: Zika virus NS2B-NS3 protease (linked construct); assay: Primary screen NINDS Rhodamine qHTS for Zika virus inhibitors (AID 1347160); conditions: activity change, negative = inhibition: at 57.1 µM (top of the series) unless noted; note: potency is the fitted concentration of half-maximal effect; nearly all actives have a fitted effect of over 55% in size
Outline: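 Kinetic fluorescence (Ex 480 nm, Em 540 nm) over 15 min with 1.5 microM Rhodamine110 peptide and 25 nM linked protease.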

[8] = biological target: Phospholipid hydroperoxide glutathione peroxidase GPX4 (Homo sapiens) (UniProt P36969); assay: Primary qHTS Assay for Inhibitors of Recombinant Selenoprotein Glutathione Peroxidase 4 (GPX4) (AID 1845192); note: potency is the fitted concentration of half-maximal effect; nearly all actives have a fitted effect of over 65% in size
Outline: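 GR-coupled readout: 100 nM GR, 1 mM GSH, 0.5 mM NADPH; NADPH fluorescence (ex 340/em 450 nm) read at t=0 and after 15 min RT. GPX4 200 nM, preincubated 30 min with compound; substrate 0.5 mM CHP.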

[9] = Primary redox qHTS assay for identification of artifact compounds. (AID 1845223); conditions: Amplex Red/HRP redox cycling with DTT, fluorescence; series mostly up to 53.8 µM
Outline: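 Amplex Red (25 uM) and HRP (250 mU/mL) in HBSS, with compounds for 15 min, then 250 uM DTT for 30 min, room temperature, dark. Fluorescence 525/598 nm read; normalized to DMSO and 10 uM DA3003; Hill fit.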

[10] = Quantitative High-Throughput drug screen in 47 multiple myeloma cell lines against the NCATS MIPE library collection: KHM11_PLB cell viability assay (AID 1918962); conditions: KHM11 myeloma cell viability, CellTiter-Glo ATP luminescence, 48 h; series mostly up to 45.8 µM; note: potency is the fitted concentration of half-maximal effect; nearly all actives have a fitted effect of over 35% in size
Outline: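 Viability readout: CellTiter-Glo luminescence following 5 min room-temperature incubation with reagent. Prior exposure: 48 h, 37C, humidified 5% CO2, 500 cells per well.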

[11] = Quantitative High-Throughput drug screen in 47 multiple myeloma cell lines against the NCATS MIPE library collection: JIM1_ECACC cell viability assay (AID 1918964; note: potency is the fitted concentration of half-maximal effect)
Outline: (§3)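 CellTiter-Glo luminescence (ATP) after 48 h compound exposure, 37C/5% CO2; 500 cells/well; MIPE 4.0 approved/investigational drugs pinned in; DMSO = 100%, media only = 0% viability.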

[12] = Quantitative High-Throughput drug screen in 47 multiple myeloma cell lines against the NCATS MIPE library collection: KMS21BM_JCRB cell viability assay (AID 1918974); conditions: ATP luminescence, 48 h; viability: at 45.8 µM (top of the series); note: potency is the fitted concentration of half-maximal effect
Outline: as §3

[13] = Quantitative High-Throughput drug screen in 47 multiple myeloma cell lines against the NCATS MIPE library collection: L363_DSMZ cell viability assay (AID 1918984); conditions: L363 myeloma viability, CellTiter-Glo ATP luminescence, 48 h; series mostly up to 45.8 µM; note: potency is the fitted concentration of half-maximal effect; nearly all actives have a fitted effect of over 40% in size
Outline: (§4)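 MIPE 4.0 approved/investigational drugs; 500 cells/well; 48 h 37 °C humidified 5% CO2; CTG luminescence readout; DMSO = 100%, media = 0% viability.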

[14] = Quantitative High-Throughput drug screen in 47 multiple myeloma cell lines against the NCATS MIPE library collection: UTMC2_PLB cell viability assay (AID 1919868); conditions: CellTiter-Glo ATP luminescence, 48 h; series mostly up to 45.8 µM; note: potency is the fitted concentration of half-maximal effect; nearly all actives have a fitted effect of over 55% in size
Outline: as §4

MCC-13 = assay: qHTS assay to identify novel small-molecules to repurpose for Merkel cell carcinoma treatment (AID 1296009); conditions: MCC and control cell lines, CellTiter-Glo viability, 72 h; series mostly up to 46 µM; note: potency is the fitted concentration of half-maximal effect; nearly all actives have a fitted effect of over 60% in size
Outline: (§5)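 qHTS format: cells treated with library compounds in DMSO across 8 (NPC) or 11 (MIPE) concentrations. Readout after 72 hr at 37 degree celsius was CellTiter-Glo luminescence.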

MKL-1 = assay: as above; conditions: MCC and control cell lines, CellTiter-Glo viability, 72 h; series mostly up to 46 µM
Outline: as §5

[15] = qHTS of pediatric cancer cell lines to identify multiple opportunities for drug repurposing: Primary screen for U-2 OS cells (AID 1347096); note: potency is the fitted concentration of half-maximal effect; nearly all actives have a fitted effect of over 50% in size
Outline: as §2

[16] = qHTS of pediatric cancer cell lines to identify multiple opportunities for drug repurposing: Primary screen for RD cells (AID 1347104); conditions: RD rhabdomyosarcoma viability, CellTiter-Glo luminescence, 48 h; activity change, negative = cytotoxic: at 46 µM (top of the series); note: potency is the fitted concentration of half-maximal effect; nearly all actives have a fitted effect of over 55% in size
Outline: as §1

[17] = qHTS of pediatric cancer cell lines to identify multiple opportunities for drug repurposing: Primary screen for control Hh wild type fibroblast cells (AID 1347106); note: potency is the fitted concentration of half-maximal effect; nearly all actives have a fitted effect of over 55% in size
Outline: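 Viability after 48 h compound treatment at 37C, 500-1,000 cells/well, read as ATP luminescence with CellTiter-Glo. Primary screens used 11-point (MIPE, 0.78 nM-46 µM) or 8-point (NPC, 0.59 nM-46 µM) final concentrations; follow-up screens used 11-point dilutions.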
Tags give direction and shape of the fitted curve.

UniProt P36969, sequence (P36969 whole entry, looked up): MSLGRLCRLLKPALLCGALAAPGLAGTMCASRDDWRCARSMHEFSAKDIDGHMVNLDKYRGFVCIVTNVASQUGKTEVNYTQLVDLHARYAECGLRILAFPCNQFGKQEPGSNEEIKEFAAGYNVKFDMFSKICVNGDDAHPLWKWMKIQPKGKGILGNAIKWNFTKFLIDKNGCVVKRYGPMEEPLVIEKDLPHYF

For `OC[C@H]1O[C@@H](Oc2ccc(O)cc2)[C@H](O)[C@@H](O)[C@@H]1O`, the Potency [1] was inconclusive [cytotoxic, single point].

For `O=C(O)C1(Cc2cccc(Nc3nccs3)n2)CCC(Oc2cccc(Cl)c2F)CC1` (stereo unspecified), the Potency [2] was inconclusive [cytotoxic, full curve], the Potency [3] was inconclusive [cytotoxic, full curve] and the Potency [4] was active: 1.66 µM. The Potency [5] was inconclusive [cytotoxic, single point], the Potency [6] was active: 6.31 µM and the Potency [7] was active: 4.47 µM. For the same molecule, the Potency [8] was inconclusive [inhibitor, partial curve], the Potency [9] was “inactive” and the Potency [10] was active: 0.264 µM. For the same molecule, the Potency [11] was inconclusive [cytotoxic, full curve, poor fit], the Potency [12] was active: 0.0235 µM and the Potency [13] was inconclusive [cytotoxic, full curve, poor fit]. The Potency [14] was active: 0.0372 µM, the Potency (MCC-13) was active: 10.5 µM and the Potency (MKL-1) was inconclusive [inhibitor, full curve].

With `COc1cc(OC)cc(-c2ccc3ncc4ccc(=O)n(-c5ccc(N6CCNCC6)c(C(F)(F)F)c5)c4c3c2)c1` the Potency [3] was active: 0.935 µM, the Potency [15] was active: 14.8 µM and the Potency [1] was active: 13.2 µM. The Potency [16] was active: 8.33 µM, the Potency [17] was active: 20.9 µM and the Potency [10] was active: 5.9 µM. For the same molecule, the Potency [11] was active: 3.72 µM, the Potency [12] was active: 5.26 µM and the Potency [14] was active: 2.96 µM. The Potency (MCC-13) was inconclusive [inhibitor, partial curve].
